Test results as given in the supplement of paper PMC11876631.
Substitutions are numbered along the chain they refer to. In names and notes the source's numbering stands. ± gives the standard deviation of the averaged measurements. Laboratory Escherichia coli strains with one amino-acid change in an essential protein, pooled on minimal glucose agar with carbenicillin or gentamicin at twice the control MIC (plus kanamycin and chloramphenicol for the plasmids), 48 h. Fold change of barcode share against drug-free plates; higher = less susceptible. Active = above 20 in both replicates (the paper's putatively resistant). '<' = one read or none on drug, '>' = one read or none on a drug-free plate. Shares are relative, so most strains fall below 1 when a few take over. Listed are strains with at least 15 reads on both drug-free plates, and hits; most hits rest on fewer reference reads. Replicate rank correlation about 0.5. Edits are read from barcodes.

B1: mukF V132Q (protein)
chain: MSEFSQTVPELVAWARKNDFSISLPVDRLSFLLAVATLNGERLDGEMSEGELVDAFRHVSDAFEQTSETIGVRANNAINDMVRQRLLNRFTSEQAEGNAIYRLTPLGIGITDYYIRQREFSTLRLSMQLSIQAGELKRAADAAEEGGDEFHWHRNVYAPLKYSVAEIFDSIDLTQRLMDEQQQQVKDDIAQLLNKDWRAAISSCELLLSETSGTLRELQDTLEAAGDKLQANLLRIQDATMTHDDLHFVDRLVFDLQSKLDRIISWGQQSIDLWIGYDRHVHKFIRTAIDMDKNRVFAQRLRQSVQTYFDEPWALTYANADRLLDMRDEEMALRDEEVTGELPEDLEYEEFNEIREQLAAIIEEQLAVYKTRQVPLDLGLVVREYLSQYPRARHFDVARIVIDQAVRLGVAQADFTGLPAKWQPINDYGAKVQAHVIDKY
B2: mukF V132D (protein)
chain: B1 chain with Q132D
B3: mukF V132P (protein)
chain: B1 chain with Q132P
B4: mukF F31A (protein)
chain: B1 chain with F31A, Q132V
B5: mukF F31W (protein)
chain: B1 chain with F31W, Q132V
B6: asd I110Q (protein)
chain: MKNVGFIGWRGMVGSVLMQRMVEERDFDAIRPVFFSTSQLGQAAPSFGGTTGTLQDAFDLEALKALDIIVTCQGGDYTNEIYPKLRESGWQGYWIDAASSLRMKDDAIIQLDPVNQDVITDGLNNGIRTFVGGNCTVSLMLMSLGGLFANDLVDWVSVATYQAASGGGARHMRELLTQMGHLYGHVADELATPSSAILDIERKVTTLTRSGELPVDNFGVPLAGSLIPWIDKQLDNGQSREEWKGQAETNKILNTSSVIPVDGLCVRVGALRCHSQAFTIKLKKDVSIPTVEELLAAHNPWAKVVPNDREITMRELTPAAVTGTLTTPVGRLRKLNMGPEFLSAFTVGDQLLWGAAEPLRRMLRQLA

Target: Escherichia coli (laboratory strain)
Assay: barcode share on antibiotic plates over drug-free plates; higher = less susceptible
Procedure: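 A pool of E. coli strains, each edited to carry one amino-acid change in an essential protein, was grown for 48 h on minimal glucose agar with or without antibiotic; strain barcodes were sequenced; mean of two replicates.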

[1] = antibiotic: carbenicillin, 2× MIC (3.1 µg/mL)
[2] = antibiotic: gentamicin, 2× MIC (MIC 0.45 µg/mL)

Protein | fold change of barcode share [1] | fold change of barcode share [2]
B1 | 0.308 ± 0.081 | < 0.0055
B2 | 0.166 ± 0.009 | < 0.0118
B3 | 0.172 ± 0.055 | < 0.0104
B4 | 0.289 ± 0.096 | 0.0164 ± 0.012
B5 | 0.408 ± 0.23 | 0.00303 ± 0.0022
B6 | 0.371 ± 0.067 | 0.00757 ± 0.0052
